Experimental data as given in ChEMBL document CHEMBL1143190, “Synthesis and structure-activity relationships of soluble 8-substituted 4-(2-chlorophenyl)-9-hydroxypyrrolo[3,4-c]carbazole-1,3(2H,6H)-diones as inhibitors of the Wee1 and Chk1 checkpoint kinases” (Bioorg Med Chem Lett, 2008).

Biological target: T1, Serine/threonine-protein kinase Chk1 (Homo sapiens, UniProt O14757)
T1 sequence (O14757 whole entry): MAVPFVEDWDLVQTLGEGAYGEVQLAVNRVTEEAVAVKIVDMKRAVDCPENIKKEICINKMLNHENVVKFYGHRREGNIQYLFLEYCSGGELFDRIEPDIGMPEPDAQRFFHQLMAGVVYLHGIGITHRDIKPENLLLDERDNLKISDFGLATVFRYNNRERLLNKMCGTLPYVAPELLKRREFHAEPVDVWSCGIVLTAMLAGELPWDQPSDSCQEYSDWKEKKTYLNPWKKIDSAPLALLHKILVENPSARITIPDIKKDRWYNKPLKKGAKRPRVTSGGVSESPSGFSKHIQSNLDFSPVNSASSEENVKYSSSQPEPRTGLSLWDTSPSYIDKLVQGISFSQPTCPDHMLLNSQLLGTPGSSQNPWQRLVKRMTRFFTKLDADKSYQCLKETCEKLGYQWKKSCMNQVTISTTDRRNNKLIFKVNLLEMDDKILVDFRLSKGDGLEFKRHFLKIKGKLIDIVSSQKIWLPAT

Row | IC50 [nM] | SMILES
1 | 22 | O=C1NC(=O)c2c1c(-c1ccccc1Cl)cc1[nH]c3cc(CCCCN4CCCC4)c(O)cc3c21
2 | 63 | O=C1NC(=O)c2c1c(-c1ccccc1Cl)cc1c2c2cc(O)c(OCCCN3CCCC3)cc2n1CCO
3 | 242 | Cn1c2cc(C(=O)NCCN3CCCC3)c(O)cc2c2c3c(c(-c4ccccc4Cl)cc21)C(=O)NC3=O
4 | 134 | CN(C)CCCOc1cc2c(cc1O)c1c3c(c(-c4ccccc4Cl)cc1n2CCO)C(=O)NC3=O
5 | 57 | Cn1c2cc(S(=O)(=O)NCCN3CCCC3)c(O)cc2c2c3c(c(-c4ccccc4Cl)cc21)C(=O)NC3=O
6 | 4 | Cn1c2cc(CCCCN3CCCC3)c(O)cc2c2c3c(c(-c4ccccc4Cl)cc21)C(=O)NC3=O
7 | 10 | O=C1NC(=O)c2c1c(-c1ccccc1Cl)cc1[nH]c3cc(OCCCN4CCCC4)c(O)cc3c21
8 | 14 | O=C1NC(=O)c2c1c(-c1ccccc1Cl)cc1c2c2cc(O)c(CCCCN3CCCC3)cc2n1CCO
9 | 240 | Cn1c2cc(S(=O)(=O)CCCN3CCCC3)c(O)cc2c2c3c(c(-c4ccccc4Cl)cc21)C(=O)NC3=O
10 | 44 | Cn1c2cc(SCCCN3CCCC3)c(O)cc2c2c3c(c(-c4ccccc4Cl)cc21)C(=O)NC3=O

Row | SMILES | IC50 [nM]
11 | Cn1c2cc(OCCCN3CCOCC3)c(O)cc2c2c3c(c(-c4ccccc4Cl)cc21)C(=O)NC3=O | 374
12 | Cn1c2cc(CCCCN3CCOCC3)c(O)cc2c2c3c(c(-c4ccccc4Cl)cc21)C(=O)NC3=O | 74
13 | O=C1NC(=O)c2c1c(-c1ccccc1Cl)cc1[nH]c3cc(CCCCN4CCOCC4)c(O)cc3c21 | 71
14 | O=C1NC(=O)c2c1c(-c1ccccc1Cl)cc1[nH]c3cc(OCCCN4CCOCC4)c(O)cc3c21 | 41
15 | O=C1NC(=O)c2c1c(-c1ccccc1Cl)cc1c2c2cc(O)c(OCCCN3CCOCC3)cc2n1CCO | 290
16 | CN(C)CCCOc1cc2[nH]c3cc(-c4ccccc4Cl)c4c(c3c2cc1O)C(=O)NC4=O | 3
17 | CN(C)CCCCc1cc2[nH]c3cc(-c4ccccc4Cl)c4c(c3c2cc1O)C(=O)NC4=O | 55
18 | O=C1NC(=O)c2c1c(-c1ccccc1Cl)cc1c2c2cc(O)c(CCCCN3CCOCC3)cc2n1CCO | 22
19 | CN(C)CCCCc1cc2c(cc1O)c1c3c(c(-c4ccccc4Cl)cc1n2C)C(=O)NC3=O | 102
